In all, about 230,000 compounds went through this assay and about 3,600 (1.6%) were called active. Inconclusive means that the source gave no clear call. Such entries were picked first, then a sample of the others. The call rests on the fitted dose curve; in most records, active means well fitted inhibition curve with a large enough effect (not every such curve was filed as active); inconclusive means small, poorly fitted or top-dose-only effect, or another doubt; inactive means no such curve, though single readings can be large or run the other way. Potencies of inconclusive entries are doubtful fits and often do not repeat.
biological target: Lysine-specific demethylase 4E (Homo sapiens) (UniProt B2RXH2); assay: qHTS Assay for Inhibitors of Human Jumonji Domain Containing 2E (JMJD2E); conditions: JMJD2E catalytic domain, FDH-coupled NADH fluorescence (FDH is formaldehyde dehydrogenase); series mostly up to 57.1 µM
Further: nearly all actives have a fitted effect of over 50% in size.
Potency means the concentration at half of the fitted maximal effect; tags describe the fitted curve by direction and shape.

UniProt B2RXH2, sequence (B2RXH2 whole entry, looked up, the tested form may be a part): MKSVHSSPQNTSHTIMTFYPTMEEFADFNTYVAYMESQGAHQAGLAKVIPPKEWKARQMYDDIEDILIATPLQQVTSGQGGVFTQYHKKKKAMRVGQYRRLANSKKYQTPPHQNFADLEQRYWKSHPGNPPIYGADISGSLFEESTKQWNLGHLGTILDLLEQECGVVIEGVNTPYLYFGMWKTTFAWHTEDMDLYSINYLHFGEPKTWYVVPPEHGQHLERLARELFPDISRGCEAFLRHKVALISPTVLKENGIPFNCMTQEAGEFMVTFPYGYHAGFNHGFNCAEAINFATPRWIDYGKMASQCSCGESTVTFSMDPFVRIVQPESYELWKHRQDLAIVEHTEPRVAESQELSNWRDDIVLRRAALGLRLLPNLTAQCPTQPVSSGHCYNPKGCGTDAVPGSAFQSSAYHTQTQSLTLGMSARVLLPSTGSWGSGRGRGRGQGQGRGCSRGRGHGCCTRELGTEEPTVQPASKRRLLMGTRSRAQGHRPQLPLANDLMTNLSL

Q: With `O=C(Nc1ncc2c(n1)-c1ccccc1CC2)c1cccc(Cl)c1` as the compound, how does the Potency read?
A: The Potency was inconclusive: 39.8 µM [inhibitor, single point].

Q: `CCOc1cc2c(cc1C=O)OC(C)C2` (stereo not drawn) was tested. Which Potency did it give?
A: The Potency was inconclusive: 39.8 µM [inhibitor, single point].

Q: How did the Potency turn out when `FC(F)(F)c1nc(N2CCCC2)ncc1-c1nnnn1-c1ccc(Cl)cc1` was run?
A: Its Potency is inconclusive: 39.8 µM [inhibitor, single point].

Q: `N#C/C(=C(/O)c1ccco1)c1nc2ccccc2[nH]1` was tested. Which Potency did it give?
A: The Potency was inconclusive: 28.2 µM [inhibitor, single point].

Q: For `CC(C)(C)OC(=O)NCCC(=O)N/N=C/c1cccc2cccnc12`, which Potency is on record?
A: The Potency was inconclusive: 25.1 µM [inhibitor, single point].

Q: `COC(=O)c1[nH]c2cccc(OC)c2c1NC(=O)CCN1CC(C)CC(C)C1` (stereo not drawn) was tested. Which Potency did it give?
A: Its Potency is inconclusive: 25.1 µM [inhibitor, partial curve].

Q: `CC(C)(C)OC(=O)NCc1ccc(NC(=O)c2nc[nH]c2C(=O)N[C@@H](Cc2ccccc2)C(=O)OC(C)(C)C)cc1` was tested. Which Potency did it give?
A: The Potency was inconclusive: 35.5 µM [inhibitor, single point].

Q: With `O=C(c1nc2nc(-c3ccc(Cl)cc3)cc(C(F)(F)F)n2n1)N1CCOCC1` as the compound, how does the Potency read?
A: Its Potency is inconclusive: 31.6 µM [inhibitor, partial curve].

Q: Which Potency does the source give for `Cc1c(NC(=O)c2cc(-c3ccco3)on2)c(=O)n(-c2ccccc2)n1C` here?
A: The Potency was “inactive”.

Q: With `Cc1csc(SCc2nnc(-c3ccccc3Br)o2)n1` as the compound, how does the Potency read?
A: Its Potency is inconclusive: 8.91 µM [inhibitor, partial curve].

Q: `COC(=O)c1cc(=O)nc2sc3ccccc3n12` was tested. Which Potency did it give?
A: Its Potency is inconclusive: 39.8 µM [inhibitor, single point].

Q: Which Potency does the source give for `Cc1cc(=O)oc2cc(OCC(=O)NCc3ccncc3)ccc12` here?
A: Its Potency is inconclusive: 28.2 µM [inhibitor, partial curve].

Q: Which Potency does the source give for `CCCCn1c(=O)[nH]c(=O)c2c1nc(-c1ccc(-c3ccccc3Br)o1)n2CCOC` here?
A: Its Potency is inconclusive: 28.2 µM [inhibitor, partial curve].

Q: How did the Potency turn out when `Cc1cccc(OCC(=O)N/N=C/c2cc([N+](=O)[O-])ccc2N2CCOCC2)c1` was run?
A: Its Potency is “inactive”.

Q: Which Potency does the source give for `Cc1ccccc1N1C(S)=C(C#N)C(=O)NC1c1cccs1` (stereo not drawn) here?
A: The Potency was “inactive”.

Q: For `COc1ccc(S(=O)(=O)n2ccc(-c3cnc(-c4ccccc4)s3)n2)cc1`, which Potency is on record?
A: Its Potency is inconclusive: 28.2 µM [inhibitor, partial curve].

Q: With `CCCc1cc(-c2n[nH]c(=S)n2C(C)c2ccccc2)cs1` (stereo not drawn) as the compound, how does the Potency read?
A: The Potency was “inactive”.

Q: How did the Potency turn out when `Cc1ccc(-c2[nH]c(-c3ccc(C(=O)O)cc3)nc2-c2ccccc2)cc1` was run?
A: The Potency was inconclusive: 28.2 µM [inhibitor, partial curve].

Q: How did the Potency turn out when `O=C(Nc1ccc2oc(-c3ccncc3)nc2c1)c1cccs1` was run?
A: Its Potency is inconclusive: 25.1 µM [inhibitor, partial curve].

Q: Which Potency does the source give for `Cc1ccc2c(c1)C1CCCC3C1N2CC(=O)N3Cc1ccccc1` (stereo not drawn) here?
A: Its Potency is inconclusive: 25.1 µM [inhibitor, single point].

Q: For `CC(/C=N/n1c(-c2ccco2)n[nH]c1=S)=C\c1ccccc1`, which Potency is on record?
A: Its Potency is inconclusive: 25.1 µM [inhibitor, single point].

Q: For `COc1ccc(S(=O)(=O)N2CCCN(CC(=O)Nc3ccc(OC)c(Cl)c3)CC2)cc1`, which Potency is on record?
A: The Potency was “inactive”.

Q: How did the Potency turn out when `CCOC(=O)N1CCN(CC(=O)Nc2ccc(C)cc2)CC1` was run?
A: The Potency was “inactive”.

Q: For `Cc1ccc(N2CCOCC2)c2c1C(=O)c1ccccc1C2=O`, which Potency is on record?
A: Its Potency is “inactive”.

Q: For `Cc1oc(-c2cccs2)nc1CN1CCN(C(C)C)C(CCO)C1` (stereo not drawn), which Potency is on record?
A: The Potency was inconclusive: 35.5 µM [inhibitor, single point].

Q: With `O=S(=O)(c1cnc(Cl)c(Cl)c1)N1CCCc2ccccc21` as the compound, how does the Potency read?
A: Its Potency is “inactive”.

Q: Which Potency does the source give for `CCn1cc(Br)c(C(=O)Nc2ccc(OC)cc2)n1` here?
A: Its Potency is “inactive”.

Q: With `CN(C)CCCNC(=O)c1ccc(-c2nc(-c3ccc(Cl)cc3)cs2)cc1` as the compound, how does the Potency read?
A: Its Potency is inconclusive: 25.1 µM [inhibitor, partial curve].

Q: For `COc1ccc(N2CCN(C(=O)c3ccc(Cn4c(=S)[nH]c5ccc(N6CCOCC6)cc5c4=O)cc3)CC2)cc1`, which Potency is on record?
A: Its Potency is inconclusive: 28.2 µM [inhibitor, partial curve].

Q: For `CCCc1cc(=O)n2[nH]c(-c3ccc(OC)cc3)nc2n1`, which Potency is on record?
A: Its Potency is inconclusive: 28.2 µM [inhibitor, partial curve].

Q: With `CN1/C(=C/C=N/NC(=O)c2ccc([N+](=O)[O-])cc2)C(C)(C)c2ccccc21` as the compound, how does the Potency read?
A: Its Potency is inconclusive: 39.8 µM [inhibitor, single point].

Q: How did the Potency turn out when `CCSc1nc(-c2ccco2)ccc1C#N` was run?
A: Its Potency is inconclusive: 28.2 µM [inhibitor, partial curve].

Q: How did the Potency turn out when `Nc1nc(-c2ccc(-c3ccccc3)cc2)cs1` was run?
A: Its Potency is inconclusive: 14.1 µM [inhibitor, partial curve].

Q: How did the Potency turn out when `CC1(C)CC2c3cccc(C(=O)O)c3C(=O)N2c2c1ccc1ccccc21` (stereo not drawn) was run?
A: Its Potency is inconclusive: 39.8 µM [inhibitor, single point].

Q: `O=C(Nc1ccc(F)cc1)c1sc2cc(C(F)(F)F)cnc2c1-c1cccs1` was tested. Which Potency did it give?
A: Its Potency is inconclusive: 39.8 µM [inhibitor, single point].

Q: With `Nc1c(C(=O)N/N=C/c2ccccc2Cl)oc2nc(-c3ccccc3)cc(-c3ccco3)c12` as the compound, how does the Potency read?
A: The Potency was inconclusive: 20 µM [inhibitor, partial curve].

Q: How did the Potency turn out when `COCCCn1c(SCC(=O)Nc2nc3ccccc3s2)nnc1-c1ccoc1C` was run?
A: The Potency was “inactive”.

Q: Which Potency does the source give for `CCOc1ccc2nc(SCC(=O)c3ccccc3)sc2c1` here?
A: The Potency was “inactive”.

Q: How did the Potency turn out when `Cc1cccc(Cn2c(N3CCN(c4ccccc4)CC3)nc3c2c(=O)n(C)c(=O)n3C)c1` was run?
A: The Potency was inconclusive: 28.2 µM [inhibitor, single point].

Q: For `O=C(CCCCCN1C(=O)c2cccc3cccc(c23)C1=O)N1CCOCC1`, which Potency is on record?
A: The Potency was inconclusive: 4.47 µM [inhibitor, single point].

Q: With `COC(=O)[C@@H]1C[C@@]2(O)[C@H](O)[C@H](O)[C@H](O)C[C@H]2N1Cc1ccc(C(F)(F)F)cc1` as the compound, how does the Potency read?
A: The Potency was inconclusive: 35.5 µM [inhibitor, single point].

Q: Which Potency does the source give for `c1cc2c(cc1C1=NNC(=NC3CC3)SC1)OCCO2` here?
A: The Potency was inconclusive: 39.8 µM [inhibitor, single point].

Q: `COc1ccc(-n2ncc3c(Nc4cccc(C)c4)ncnc32)cc1` was tested. Which Potency did it give?
A: The Potency was inconclusive: 28.2 µM [inhibitor, partial curve].

Q: With `O=C(N/N=C/c1ccccn1)c1cccc(S(=O)(=O)N2CCCC2)c1` as the compound, how does the Potency read?
A: Its Potency is inconclusive: 39.8 µM [inhibitor, single point].

Q: With `O=C(O)c1c2c(nc3ccccc13)/C(=C/c1ccc(O)cc1)CC2` as the compound, how does the Potency read?
A: Its Potency is inconclusive: 28.2 µM [inhibitor, partial curve].

Q: With `C/C(=N\NC(=O)Cc1cc(=O)[nH][nH]1)c1cccc([N+](=O)[O-])c1` as the compound, how does the Potency read?
A: The Potency was inconclusive: 1 µM [inhibitor, full curve, poor fit].

Q: How did the Potency turn out when `CCOc1cccc(/C=N/NS(=O)(=O)c2ccc(C)c([N+](=O)[O-])c2)c1O` was run?
A: Its Potency is “inactive”.

Q: How did the Potency turn out when `O=C(NC(=S)Nc1cccc(S(=O)(=O)NC2=NCCC2)c1)c1cc(-c2ccco2)nc2ccccc12` was run?
A: The Potency was inconclusive: 31.6 µM [inhibitor, partial curve].

Q: Which Potency does the source give for `CCCC1Nc2ccc(C(=O)O)cc2C2C=CCC12` (stereo not drawn) here?
A: The Potency was “inactive”.

Q: With `Fc1cc(F)c(F)c(SCCc2ccncc2)c1F` as the compound, how does the Potency read?
A: Its Potency is inconclusive: 35.5 µM [inhibitor, single point].

Q: `CCOC(=O)C1CCN(C(=O)Nc2ccc3snnc3c2)CC1` was tested. Which Potency did it give?
A: Its Potency is inconclusive: 39.8 µM [inhibitor, single point].

Q: With `Cc1cc(SCC(=O)Nc2ccccc2)n2ncc(-c3ccccc3)c2n1` as the compound, how does the Potency read?
A: Its Potency is inconclusive: 39.8 µM [inhibitor, single point].

Q: For `COc1cc2c(=O)n(CC3CCCO3)c(=O)n(CC(=O)Nc3cccc(Cl)c3)c2cc1OC` (stereo not drawn), which Potency is on record?
A: Its Potency is inconclusive: 25.1 µM [inhibitor, partial curve].

Q: How did the Potency turn out when `COCCn1nnnc1C(C(C)C)N(Cc1cccnc1)Cc1cc2cc(OC)ccc2[nH]c1=O` (stereo not drawn) was run?
A: The Potency was inconclusive: 28.2 µM [inhibitor, single point].

Q: Which Potency does the source give for `O=C(c1ccc(COc2ccc(Cl)cc2)o1)N1CCN(Cc2ccc3c(c2)OCO3)CC1` here?
A: Its Potency is “inactive”.

Q: How did the Potency turn out when `COc1cc(/C=C/C(=O)OCC(=O)NCc2cccs2)ccc1OC(F)F` was run?
A: Its Potency is inconclusive: 35.5 µM [inhibitor, single point].

Q: For `Cc1ccc(SCc2cc(=O)c3c(=O)n(-c4ccccc4)[nH]c3[nH]2)cc1`, which Potency is on record?
A: The Potency was inconclusive: 39.8 µM [inhibitor, single point].

Q: Which Potency does the source give for `CCN(CC)c1ccc(/C=N/Nc2nc(C)cc(=O)[nH]2)c(O)c1` here?
A: The Potency was inconclusive: 0.126 µM [inhibitor, full curve, poor fit].

Q: `CC1=C(C(=O)Nc2nc3ccccc3s2)C(c2ccco2)C(C#N)=C(SCC(=O)NC2CCCCC2)N1` (stereo not drawn) was tested. Which Potency did it give?
A: The Potency was inconclusive: 35.5 µM [inhibitor, partial curve].

Q: Which Potency does the source give for `Fc1ccc(CN(Cc2ccccc2)C(c2cccs2)c2nnnn2C2CCCCC2)cc1` (stereo not drawn) here?
A: Its Potency is “inactive”.

Q: With `CC(C)(C)c1ccc(C(=O)C=[N+]=[N-])cc1` as the compound, how does the Potency read?
A: The Potency was “inactive”.

Q: Which Potency does the source give for `CCOC(=O)c1cn2cccnc2n1` here?
A: Its Potency is inconclusive: 31.6 µM [inhibitor, partial curve].

Q: `Cc1onc(-c2c(F)cccc2Cl)c1C(=O)Nc1nnc(-c2ccccc2)s1` was tested. Which Potency did it give?
A: Its Potency is inconclusive: 28.2 µM [inhibitor, partial curve].

Q: With `Cc1cccc(Nc2nc(N)c([N+](=O)[O-])c(NCCO)n2)c1` as the compound, how does the Potency read?
A: Its Potency is “inactive”.

Q: For `CN(C)CCNC(=O)/C=N/O`, which Potency is on record?
A: The Potency was “inactive”.

Q: For `CCC(=O)NC(c1cccs1)c1cc(Cl)c2cccnc2c1O` (stereo not drawn), which Potency is on record?
A: Its Potency is “inactive”.

Q: For `Cn1c(=O)c(C(=O)NCCO)c(O)c2ccccc21`, which Potency is on record?
A: The Potency was inconclusive: 39.8 µM [inhibitor, single point].

Q: For `CCOC(=O)c1sc(S(C)(=O)=O)c2c1CCc1conc1-2`, which Potency is on record?
A: Its Potency is inconclusive: 22.4 µM [inhibitor, partial curve].

Reference: PubChem BioAssay AID2147 (National Center for Advancing Translational Sciences (NCATS), 2009)
